Measured values published in the antibiotic and cytotoxicity screens of Wong et al. (2023).
Some of the results follow.

What follows are compounds tested on HepG2 (assay: cytotoxicity call (relative viability < 0.9)). Conditions: 10 µM.

| Compound | cytotoxicity call |
| --- | --- |
| N=C(N)NCCN1CCCCCCC1 | inactive |
| CCCC#Cc1cnc2c(c1)C(=O)N([C@H](C)CO)C[C@H](C)[C@H](CN(C)S(=O)(=O)c1cccc(OC)c1)O2 | inactive |
| C[C@H]1CN([C@@H](C)CO)C(=O)c2cccc(NC(=O)Nc3ccc(C(F)(F)F)cc3)c2O[C@@H]1CN(C)C(=O)Nc1ccc2c(c1)OCO2 | inactive |
| CCCN(C)C[C@H]1OCCCC[C@@H](C)Oc2ccc(NC(=O)Nc3ccc(OC)cc3)cc2C(=O)N([C@@H](C)CO)C[C@H]1C | inactive |
| C[C@H]1CCCCO[C@@H](CN(C)CC2CCCCC2)[C@@H](C)CN([C@@H](C)CO)C(=O)c2cc(NC(=O)Nc3ccc4c(c3)OCO4)ccc2O1 | active |
| C[C@@H]1O[C@@H](O[C@@H]2[C@@H](O)[C@H](OCCc3ccc(O)c(O)c3)O[C@H](CO)[C@H]2OC(=O)/C=C/c2ccc(O)c(O)c2)[C@H](O)[C@H](O)[C@H]1O | inactive |
| C[C@H](CO)N1C[C@H](C)[C@H](CN(C)C(=O)Nc2cccc3ccccc23)OCCCC[C@H](C)Oc2ccc(NC(=O)Nc3ccc(F)cc3)cc2C1=O | inactive |
| C[C@@H]1CN([C@H](C)CO)C(=O)c2c(c3ccccc3n2C)-c2ccccc2CO[C@@H]1CN(C)C(=O)Nc1ccc(-c2ccccc2)cc1 | inactive |
| C[C@@H]1CCCCO[C@@H](CN(C)Cc2ccc(C(=O)O)cc2)[C@@H](C)CN([C@@H](C)CO)C(=O)c2cc(NC(=O)Cc3ccccc3)ccc2O1 | inactive |
| Cc1cccc2sc(NC(=O)c3ccc(C(C)(C)C)cc3)nc12 | inactive |
| COc1ccc(CN(C)C[C@H]2OCCCC[C@@H](C)Oc3ccc(NC(=O)NC(C)C)cc3C(=O)N([C@@H](C)CO)C[C@@H]2C)cc1 | inactive |
| Cn1c([C@H]2C=C(C(=O)N[C@H]3c4ccccc4C[C@H]3O)O[C@@H](OCCCCO)C2)cc(=O)n1-c1ccccc1 | inactive |
| Cc1[nH]c2ccccc2c1C(=O)CSc1ccc(Cl)cc1 | inactive |
| Cc1ccccc1S(=O)(=O)N1C[C@@H](O)COC[C@H]2O[C@@H](CC(=O)N3CCC(Cc4ccccc4)CC3)CC[C@@H]21 | inactive |
| CN(C)CCCNC(=O)C[C@@H]1C=C[C@H](NS(=O)(=O)c2ccccc2)[C@H](CO)O1 | inactive |
| C[C@@H]1CN([C@H](C)CO)C(=O)c2cccc(NS(=O)(=O)c3ccc(F)cc3)c2O[C@@H]1CN(C)Cc1ccncc1 | inactive |
| C[C@H](CO)N1C[C@H](C)[C@H](CN(C)S(=O)(=O)c2ccccc2)Oc2ncc(-c3ccncc3)cc2C1=O | inactive |

| Compound | cytotoxicity call |
| --- | --- |
| CN(C)C(=O)[C@@H]1[C@@H](CO)[C@@H]2Cn3c(ccc(C4=CCCC4)c3=O)[C@H]1N2S(=O)(=O)c1cn(C)cn1 | inactive |
| C[C@H]1CN([C@@H](C)CO)C(=O)Cc2cc(NC(=O)Cn3cnnn3)ccc2O[C@H]1CN(C)Cc1ccc(C(F)(F)F)cc1 | inactive |
| C[C@H](CO)N1C[C@H](C)[C@@H](CN(C)S(=O)(=O)c2ccc(F)cc2)Oc2ncc(-c3cccc(C(=O)N(C)C)c3)cc2C1=O | inactive |
| C[C@H]1CN([C@@H](C)CO)C(=O)c2cc(NC(=O)C3CCCCC3)ccc2O[C@H]1CN(C)C(=O)Nc1cccc2ccccc12 | inactive |
| CC(=O)N1CCN(c2ncnc3nc[nH]c23)CC1 | inactive |
| C[C@H](CO)N1C[C@H](C)[C@@H](CN(C)C(=O)Nc2cccc3ccccc23)Oc2c(NC(=O)CCCCCC(=O)Nc3ccccc3N)cccc2C1=O | inactive |
| C[C@H](CO)N1C[C@H](C)[C@@H](CN(C)Cc2ccc(C(F)(F)F)cc2)Oc2ccc(NC(=O)NC3CCCCC3)cc2C1=O | inactive |
| CCCNC(=O)C[C@H]1CC[C@H]2[C@@H](COc3ccc(NC(=O)c4ccc5c(c4)OCO5)cc3C(=O)N2C)O1 | inactive |
| Cc1noc(C)c1S(=O)(=O)N(C)C[C@@H]1Oc2ccc(NS(C)(=O)=O)cc2CC(=O)N([C@@H](C)CO)C[C@H]1C | inactive |
| Nc1nc(=O)c2[nH]c(=O)c(=O)[nH]c2[nH]1 | inactive |
| [O-][NH2+][O-] | inactive |
| CC12CCC(CC1=O)C2(C)C (stereo not drawn) | inactive |
| Cc1ccc(S(=O)(=O)Nc2ccc3c(c2)CC(=O)N([C@H](C)CO)C[C@@H](C)[C@@H](CN(C)Cc2ccc(C(F)(F)F)cc2)O3)cc1 | active |
| NCc1cccc2c1OCCCO2 | inactive |
| Nc1ccc(Oc2ccccc2)cc1 | inactive |
| C[C@H](CO)N1C[C@H](C)[C@H](CN(C)CC2CC2)OCCCC[C@H](C)Oc2ccc(NS(=O)(=O)c3cn(C)cn3)cc2C1=O | inactive |
